{"source": "PubChem BioAssay AID1460", "about": "(National Center for Advancing Translational Sciences (NCATS), 2008)", "note": "In all, about 270,000 compounds went through this assay and about 5,800 (2.1%) were called active. This list was built around the results that the source calls inconclusive (neither active nor inactive); the mix of calls is not that of the screen. Calls follow the shape of the dose curve; as a rule, active = well fitted inhibition curve with a large enough effect; inconclusive = small, poorly fitted or top-dose-only effect; inactive = flat fitted curve, though single readings scatter. Potencies of inconclusive entries are doubtful fits and often do not repeat. % is scaled to controls: 0 for no effect and ±100 for the full control effect; potency is read from the fitted curve at half-maximal effect; tags tell the direction and shape of the fitted curve."}
{"biological_target": "Microtubule-associated protein tau (Homo sapiens) (UniProt P10636)", "sequence (P10636 whole entry, looked up, the tested form may be a part)": "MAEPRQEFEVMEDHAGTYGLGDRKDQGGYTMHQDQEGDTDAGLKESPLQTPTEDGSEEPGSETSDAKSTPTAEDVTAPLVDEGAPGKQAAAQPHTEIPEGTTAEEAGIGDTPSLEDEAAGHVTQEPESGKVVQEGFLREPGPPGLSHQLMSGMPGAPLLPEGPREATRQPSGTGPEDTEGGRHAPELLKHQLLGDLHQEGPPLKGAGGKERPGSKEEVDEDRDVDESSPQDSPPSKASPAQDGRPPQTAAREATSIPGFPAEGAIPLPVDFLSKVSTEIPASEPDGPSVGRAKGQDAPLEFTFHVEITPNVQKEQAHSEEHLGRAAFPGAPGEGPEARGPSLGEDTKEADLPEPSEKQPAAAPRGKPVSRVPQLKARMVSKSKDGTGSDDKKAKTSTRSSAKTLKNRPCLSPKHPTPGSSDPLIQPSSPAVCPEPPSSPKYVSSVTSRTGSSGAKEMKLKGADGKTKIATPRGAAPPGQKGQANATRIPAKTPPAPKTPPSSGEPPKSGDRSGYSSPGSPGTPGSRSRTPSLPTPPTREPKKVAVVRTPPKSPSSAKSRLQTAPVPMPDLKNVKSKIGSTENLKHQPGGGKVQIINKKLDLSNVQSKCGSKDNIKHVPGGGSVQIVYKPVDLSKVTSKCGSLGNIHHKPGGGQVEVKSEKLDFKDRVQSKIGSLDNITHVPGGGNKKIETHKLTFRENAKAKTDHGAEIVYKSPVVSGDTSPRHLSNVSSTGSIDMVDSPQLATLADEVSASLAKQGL", "test": "qHTS for Inhibitors of Tau Fibril Formation, Thioflavin T Binding; also: nearly all actives have a fitted effect of over 55% in size", "conditions": "recombinant tau K18 P301L (four-repeat tau fragment), heparin-induced fibrillization, ThT fluorescence; series mostly up to 57.4 µM; activity, negative = inhibition: at the top concentration", "in_short": "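Heparin-induced (20 uM) aggregation of recombinant human K18 P301L tau, 15 uM unlabeled with 0.24 uM labeled, pH 7 acetate buffer, 6 hr at 37 C with compound. Fibrils quantified by 30 uM ThT fluorescence after 1 hr ambient incubation.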"}
{"smiles": "CN1CCc2c(sc3c2c(=O)n(-c2ccccc2)c2nnc(SCc4ccc(Cl)cc4)n32)C1", "Potency": "inconclusive: 14.1 µM [inhibitor, partial curve]"}
{"smiles": "Cc1nc2sc(C(c3ccco3)N3CC(C)OC(C)C3)c(O)n2n1", "note": "(configuration not stated)", "activity, negative = inhibition": "inactive: -2.32%"}
{"smiles": "CC(C)Cc1nnc(NC(=O)CSc2nc(O)c(-c3ccccc3)c(=O)[nH]2)s1", "Potency": "inconclusive: 17.8 µM [inhibitor, partial curve]"}
{"smiles": "CCN(CC)CCN1C(=O)C(=O)/C(=C(/O)c2cnn(-c3ccccc3)c2C)C1c1ccc(C)o1", "note": "(configuration not stated)", "Potency": "inconclusive: 17.8 µM [inhibitor, partial curve]"}
{"smiles": "CCOc1ccc(C(C)=O)cc1N1C(=O)C2C3C=CC(O3)C2C1=O", "note": "(configuration not stated)", "Potency": "inconclusive: 28.2 µM [inhibitor, single point]"}
{"smiles": "COc1cc(C(=O)NC(=S)Nc2ccc(N3CCCC3)cc2)cc(OC)c1OC", "Potency": "inconclusive: 11.2 µM [inhibitor, partial curve]"}
{"smiles": "O=c1c2cccnc2n(Cc2ccccc2F)c(=O)n1Cc1ccc(F)cc1", "activity, negative = inhibition": "inactive: -6.05%"}
{"smiles": "O=C1c2ccccc2C(=O)N1CCc1csc(NNc2nc(CCN3C(=O)c4ccccc4C3=O)cs2)n1", "Potency": "inconclusive: 11.2 µM [inhibitor, partial curve, poor fit]"}
{"smiles": "Cc1ccc(CN2CCSc3ccc(C(=O)N4CCN(c5ccc(Cl)cc5)CC4)cc32)cc1", "Potency": "inconclusive: 10 µM [inhibitor, partial curve]"}
{"smiles": "COc1cccc(CNC(=O)c2ccc3nc(N4CCCCC4)sc3c2)c1OC", "Potency": "inconclusive: 39.8 µM [inhibitor, single point]"}
{"smiles": "CCCOC(=O)Nc1cccc(C(C)=O)c1", "activity, negative = inhibition": "inactive: -1.17%"}
{"smiles": "CCOC(=O)c1ccc(Oc2nc(NC(C)(C)C)nc(N(C)C)n2)cc1", "Potency": "inconclusive: 15.8 µM [inhibitor, partial curve]"}
{"smiles": "Cc1ccc(NC(=O)Cn2c(O)c(N=NC(=O)c3ccncc3)c3ccccc32)cc1", "Potency": "inconclusive: 2.82 µM [inhibitor, full curve]"}
{"smiles": "Cn1ccnc1SCC(=O)NC12CC3CC(CC(C3)C1)C2", "activity, negative = inhibition": "inactive: -2.32%"}
{"smiles": "COc1ccc2c(c1)CC(C(=O)NCc1ccc(F)cc1)CO2", "note": "(configuration not stated)", "activity, negative = inhibition": "inactive: 2.88%"}
{"smiles": "CCOc1ccc2nc(N3CCN(C(=O)c4ccc5c(c4)CCCC5)CC3)sc2c1", "Potency": "inconclusive: 8.91 µM [inhibitor, partial curve]"}
{"smiles": "O=[N+]([O-])c1ccc(/C=N/n2c(CO)nc3ccccc32)s1", "Potency": "inconclusive: 1.41 µM [inhibitor, full curve, poor fit]"}
{"smiles": "Cc1cc(C(=O)CSc2nnnn2-c2ccccc2)c(C)n1CCc1ccccc1", "activity, negative = inhibition": "inactive: -1.85%"}
{"smiles": "NCCC(O)C(=O)NC1C[C@@H](N)[C@H](O[C@@H]2OC(CN)C(O)C(O)C2O)C(O)[C@H]1O[C@H]1OC(CO)C(O)C(N)C1O", "note": "(some centres not stated)", "activity, negative = inhibition": "inactive: -1.17%"}
{"smiles": "CC(=O)OC[C@@H]1O[C@H](C/C=N\\OC[C@@H](O)COCc2ccco2)C=C[C@@H]1OC(C)=O", "activity, negative = inhibition": "inactive: -4.46% [at 11.5 µM]"}
{"smiles": "Cc1cc(C)n2c(SCC(=O)Nc3ccccc3)nnc2n1", "activity, negative = inhibition": "inactive: -9.07%"}
{"smiles": "CC(=O)Nc1ccc2nc(NC(=O)COc3ccccc3Cl)sc2c1", "Potency": "inconclusive: 1.41 µM [inhibitor, full curve]"}
{"smiles": "CSc1c(CC(=O)Nc2ccccc2C(F)(F)F)n(Cc2ccccc2)c2ccccc12", "activity, negative = inhibition": "inactive: 1.83%"}
{"smiles": "Cc1cc(C)cc(NC(=O)c2cc(S(=O)(=O)NCCC3=CCCCC3)ccc2F)c1", "Potency": "inconclusive: 0.631 µM [inhibitor, full curve, poor fit]"}
{"smiles": "CCN(CC)CCCNC(=O)c1ccc2c(=O)n(Cc3ccc4c(c3)OCO4)c(=S)[nH]c2c1", "Potency": "inconclusive: 25.1 µM [inhibitor, single point]"}
{"smiles": "COc1ccc(N(C(=O)c2cccc([N+](=O)[O-])c2)S(=O)(=O)c2cccs2)cc1", "Potency": "inconclusive: 17.8 µM [inhibitor, partial curve]"}
{"smiles": "CN(C(=O)COC(=O)c1ccc2c(c1)NC(=O)CS2)C1CCS(=O)(=O)C1", "note": "(configuration not stated)", "activity, negative = inhibition": "inactive: 1.83%"}
{"smiles": "O=C(Nc1ccccc1)c1ccc(-c2ccc(Br)cc2)o1", "Potency": "inconclusive: 1.58 µM [inhibitor, full curve]"}
{"smiles": "Cc1cc(C)c(S(=O)(=O)Nc2cc(SCC(=O)O)c(O)c3ccccc23)cc1C", "Potency": "active: 12.6 µM"}
{"smiles": "COC(=O)C1=C(C)N(CC(C)C)C(=O)/C1=C\\c1cccs1", "Potency": "inconclusive: 17.8 µM [inhibitor, partial curve]"}
{"smiles": "Cc1cc(C)cc(OCC(O)CN2CCC(CN3C(=O)c4cccc5cccc(c45)C3=O)CC2)c1", "note": "(configuration not stated)", "activity, negative = inhibition": "inactive: -4.95%"}
{"smiles": "COc1ccc(NC(=O)CCSCCC(=O)Nc2ccc(OC)cc2OC)c(OC)c1", "Potency": "inconclusive: 22.4 µM [inhibitor, single point]"}
{"smiles": "Cc1cc(=O)oc2cc(OCCSc3nnc(-c4ccccc4)o3)ccc12", "Potency": "inconclusive: 1.78 µM [inhibitor, full curve]"}
{"smiles": "CC(C)c1cc(C(=O)Nc2ccc3c(c2)OCO3)no1", "Potency": "inconclusive: 14.1 µM [inhibitor, partial curve]"}
{"smiles": "CCOC(=O)c1sc2nc(N3CCCC3)c3c(c2c1N)CC(C)(C)OC3", "Potency": "inconclusive: 20 µM [inhibitor, single point]"}
{"smiles": "CCOC(=O)C1=C(C)N=c2s/c(=C3\\C(=O)Nc4ccccc43)c(=O)n2C1c1ccc2c(c1)OCO2", "note": "(configuration not stated)", "Potency": "active: 17.8 µM"}
{"smiles": "COc1ccc(C(=O)Nc2ccc(NC(=O)c3cnccn3)cn2)cc1", "Potency": "inconclusive: 0.178 µM [inhibitor, full curve]"}
{"smiles": "Cn1cccc1Cc1nnc(SCC(=O)Nc2ccc3c(c2)OCCO3)n1CCc1ccccc1", "Potency": "inconclusive: 22.4 µM [inhibitor, partial curve, poor fit]"}
{"smiles": "COc1ccc2[nH]c3c(N4CCC(O)(c5cccc(C(F)(F)F)c5)CC4)ncnc3c2c1", "Potency": "inconclusive: 14.1 µM [inhibitor, partial curve]"}
{"smiles": "C/C(=N\\Nc1ccc(Cl)cc1)c1ccccn1", "Potency": "inconclusive: 10 µM [inhibitor, partial curve]"}
{"smiles": "O=C(/C=C\\Nc1cccc(F)c1)c1ccc2c(c1)OCO2", "Potency": "inconclusive: 2.82 µM [inhibitor, partial curve]"}
{"smiles": "CCOC(=O)c1ccc(NC(=O)CSc2c(C(C)C)cnc3c2c(=O)n(C)c(=O)n3C)cc1", "activity, negative = inhibition": "inactive: -10.5%"}
